Measured values as given in PubChem BioAssay AID624418 (National Center for Advancing Translational Sciences (NCATS), 2012).
In all, about 410,000 compounds went through this assay and about 530 (0.13%) were called active. The inconclusive results got no clear call from the source; some entries with a clear call stand among them for comparison. Calls follow the shape of the dose curve; as a rule, active = well fitted inhibition curve with a large enough effect; inconclusive = small, poorly fitted or top-dose-only effect, or another doubt; inactive = no such curve, though single readings can be large or run the other way. Potencies beside an inconclusive call are fits to weak or partial responses and may not hold up.

Assay: qHTS of GLP-1 Receptor Inverse Agonists: Cytotox Screen
Details: HEK293 cAMP-luciferase reporter cells, luminescence, 24 h; series mostly up to 38.3 µM
In short: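 Step one: seed cells (200 cells/uL, DMEM with 10% Nu serum, 1% pen-strep). Step two: 12-hour incubation at 37 deg C. Step three: pin 23 nL compound, incubate 24 hr. Step four: add luciferase reagent, read luminescence 12 min later.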
Potency is read from the fitted curve at half-maximal effect.

Row | SMILES | Potency
1 | CCOc1cc(NC(=S)Nc2ccc(Cl)cc2)c(OCC)cc1NC(C)=O | inconclusive: 28.2 µM [inhibitor, single point]
2 | Cc1ccc(N2Cc3ccccc3C2=O)cc1 | inactive
3 | O=C(CCN1C(=O)/C(=C\C=C\c2ccccc2)SC1=S)Nc1ccc(C(=O)O)cc1 | inconclusive: 31.6 µM [inhibitor, single point]
4 | O=C1c2cccc3cccc(c23)C(=O)C1(O)O | inconclusive: 11.2 µM [inhibitor, single point]
5 | CCN1/C(=C/c2ccc3cc(C)cc(C)c3[n+]2CC)Sc2cc(C)ccc21 | inconclusive: 2.82 µM [inhibitor, full curve]
6 | Cn1c(=O)c2c(-c3ccccc3Cl)n(Cc3ccc(Cl)cc3)cc2n(C)c1=O | inactive
7 | O=C(O)c1ccc(C=C(c2nc3ccccc3s2)c2nc3ccccc3s2)cc1 | inconclusive: 28.2 µM [inhibitor, single point]
8 | COc1ccccc1N1CCN(C(=O)c2cc(-c3ccc(F)cc3)[nH]c2C)CC1 | inconclusive: 14.1 µM [inhibitor, single point]
9 | Cc1cc(=O)n2[nH]c(=O)c(N=Nc3ccccc3)c2[nH]1 | inconclusive: 10 µM [inhibitor, partial curve, poor fit]
10 | CCOc1ccc(CNCc2c(C(=O)O)n(Cc3ccc(OC)cc3)c3ccccc23)cc1 | inconclusive: 22.4 µM [inhibitor, single point]
11 | COc1ccc(C(=O)NNC(=O)CSc2nnc3ccccn23)cc1OC | inconclusive: 28.2 µM [inhibitor, single point]
12 | COc1ccccc1Nc1cc(C)nc(Nc2ccccc2OC)n1 | inconclusive: 17.8 µM [inhibitor, partial curve, poor fit]
13 | Cc1cnn(CCC(=O)NNC(=S)NCC(C)C)c1 | inconclusive: 11.2 µM [inhibitor, partial curve, poor fit]
14 | Cc1cc[n+]2n1CC(O)C2 (configuration not stated) | inconclusive: 10 µM [inhibitor, partial curve]
15 | COc1ccc(/C=N/NC(=O)c2[nH]c3ccc(Br)cc3c2-c2ccccc2)cc1 | inconclusive: 14.1 µM [inhibitor, partial curve, poor fit]
16 | Cc1ccsc1/C=N/n1c(-c2ccccc2)n[nH]c1=S | inconclusive: 28.2 µM [inhibitor, single point]
17 | Oc1ccc(C[C@H]2CNC(=S)N2CC2CCCN2C[C@H](Cc2ccc(O)cc2)N2C[C@H](Cc3ccc(O)cc3)N(CC3CCCCC3)C2=S)cc1 (some centres not stated) | inconclusive: 7.08 µM [inhibitor, partial curve, poor fit]
18 | Cn1c(SCC(=O)Nc2ncc(C(F)(F)F)cc2Cl)nnc1-c1ccc(Cl)cc1 | inactive
19 | CSc1ccc(-c2nnn(CC(=O)NCc3ccccc3)n2)cc1 | inconclusive: 7.94 µM [inhibitor, partial curve, poor fit]
20 | Cc1ccc2c(COC(=O)c3n[nH]c4ccccc34)cc(=O)oc2c1 | inconclusive: 2.82 µM [inhibitor, full curve, poor fit]
21 | CC(=O)c1sc(N/N=C\c2c(O)ccc3ccccc23)nc1C | inconclusive: 1.26 µM [inhibitor, partial curve, poor fit]

Row | SMILES | Potency
22 | CC1(c2nnc(-c3cccc(Cl)c3)o2)CC(c2c(Cl)cccc2Cl)=NO1 (configuration not stated) | inconclusive: 0.501 µM [inhibitor, full curve, poor fit]
23 | CN(CC(=O)NC(c1ccccc1)c1ccccc1)Cc1nc2ccccc2c(=O)[nH]1 | inconclusive: 28.2 µM [inhibitor, single point]
24 | O=C(O)c1ccccc1NS(=O)(=O)c1cccc(-n2sc3ccccc3c2=O)c1 | inconclusive: 2.82 µM [inhibitor, partial curve, poor fit]
25 | CCCOc1ccc(CNC(=O)Cn2cc3c(n2)-c2c(oc(C(=O)N4CCOCC4)c2C)CC3)cc1 | inactive
26 | Clc1cccc(Cl)c1CNc1ccc(N2CCCC2)cc1 | inconclusive: 10 µM [inhibitor, single point]
27 | COc1ccc(Cl)cc1NC(=O)Cn1c(=O)n(CCCC(=O)NCCc2ccc(OC)c(OC)c2)c(=O)c2ccccc21 | inconclusive: 28.2 µM [inhibitor, single point]
28 | CNC1=C(N(C(C)=O)c2ccc(Br)cc2)C(=O)c2ccccc2C1=O | inconclusive: 5.01 µM [inhibitor, full curve, poor fit]
29 | CC(C)(C)S(=O)N1Cc2cc(C(=O)N3CCOCC3)nc(-c3cccc(Br)c3)c2[C@H]1CCO (some centres not stated) | inactive
30 | Cc1cnc(C(=O)NC2CC(C)(C)Cc3c2cnn3-c2cccc(F)c2)cn1 (configuration not stated) | inconclusive: 28.2 µM [inhibitor, single point]
31 | COCCNCc1nc2sc(C)c(-c3ccccc3)c2c(=O)[nH]1 | inconclusive: 12.6 µM [inhibitor, partial curve]
32 | C/C(=N\Nc1nc(C)cc(-c2ccccc2)n1)c1ccccc1 | inconclusive: 5.01 µM [inhibitor, single point]
33 | O=C(Nc1ccccc1NC(=O)c1ccccc1Cl)c1ccccc1Cl | inconclusive: 10 µM [inhibitor, single point]
34 | O=C(N/N=C/c1ccc2c(c1)OCO2)c1cccc2ccccc12 | inconclusive: 7.94 µM [inhibitor, partial curve, poor fit]
35 | CCOC(=O)c1ccc(NC(=O)CN(c2ccc(C)cc2)S(=O)(=O)c2c(C)n[nH]c2C)cc1 | inactive
36 | C=CS(=O)(=O)N(Cc1ccc(Cl)c(Cl)c1)C[C@@H](O)CO | inconclusive: 12.6 µM [inhibitor, partial curve, poor fit]
37 | CCCc1cc(=O)[nH]c(N/N=C/C=C\c2ccccc2)n1 | inactive
38 | Cc1ccc(CN2C(=O)C(=O)c3cc(Br)cc(C)c32)cc1 | inconclusive: 12.6 µM [inhibitor, single point]
39 | Nc1nc(CN2CCc3ccccc3C2)nc(Nc2ccccc2)n1 | inconclusive: 28.2 µM [inhibitor, single point]
40 | COc1cccc(/C=N/NC(=O)CSc2cccc3cccnc23)c1 | inconclusive: 11.2 µM [inhibitor, partial curve, poor fit]
41 | Cc1cccc(CN2CCN(C(=O)CCl)CC2)c1 | inconclusive: 22.4 µM [inhibitor, single point]
42 | COc1ccc(S(=O)(=O)Nc2cc3c(C(C)=O)c(C)oc3c3ccccc23)cc1 | inconclusive: 0.891 µM [inhibitor, full curve, poor fit]

Row | SMILES | Potency
43 | CC(=O)N1CCN(c2ccc([N+](=O)[O-])cc2)CC1 | inconclusive: 11.2 µM [inhibitor, single point]
44 | CCCCCC(=O)N/N=C/c1ccc([N+](=O)[O-])o1 | inconclusive: 11.2 µM [inhibitor, single point]
45 | CCc1ccc(S(=O)(=O)/N=C2/C=C(Sc3ncn[nH]3)C(=O)c3ccccc32)cc1 | inconclusive: 12.6 µM [inhibitor, single point]
46 | O=C(Oc1ccc2c(c1)O/C(=C\c1ccncc1)C2=O)c1cccs1 | inactive
47 | CCCCC[C@H](C)N1C[C@@H](COCc2ccccc2)Oc2cc(N3CC[C@@H](N(C)C)C3)ccc2S1(=O)=O | inconclusive: 28.2 µM [inhibitor, single point]
48 | Cc1cccc(NS(=O)(=O)c2cc(C(=O)NCCC3=CCCCC3)ccc2Cl)c1 | inactive
49 | CCC(C)Sc1nc2c(c(=O)[nH]1)C(c1cccs1)C1=C(CCCC1=O)N2 (configuration not stated) | inconclusive: 5.01 µM [inhibitor, full curve, poor fit]
50 | CCN(CC)CCSc1nnc2c3cc(C)ccc3n(Cc3ccccc3)c2n1 | inconclusive: 28.2 µM [inhibitor, partial curve, poor fit]
51 | Cc1ccc(C)c(NC(=O)CSc2ncc3c(n2)-c2ccccc2N(Cc2ccccc2C)S3(=O)=O)c1 | inactive
52 | CCN(CC)CCNC(=O)c1ccc(NC(=O)c2ccc(S(=O)(=O)N3CCCCCC3)cc2)cc1 | inconclusive: 28.2 µM [inhibitor, single point]
53 | CCOc1ccc(/C=C/C(=O)c2cc(Br)ccc(=O)c2O)cc1 | inconclusive: 15.8 µM [inhibitor, partial curve, poor fit]
54 | Cc1ccc(NC(=O)c2cc3c(s2)CCC3)cc1S(=O)(=O)N1CCOCC1 | inconclusive: 20 µM [inhibitor, single point]
55 | Cc1ccc(C)c(Nc2ncnc3c2cnn3-c2ccc(F)cc2)c1 | inactive
56 | CNC(=S)N/N=C(\C)c1ccc(C)c(C)c1 | inconclusive: 5.01 µM [inhibitor, full curve, poor fit]
57 | CC(OCC(O)CN(C)Cc1nc2ccccc2c(=O)[nH]1)c1ccc(Cl)cc1 (configuration not stated) | inactive
58 | CCc1cc(=O)oc2cc3occ(-c4ccc(OC)c(F)c4)c3cc12 | inconclusive: 1.26 µM [inhibitor, full curve, poor fit]
59 | COc1ccc(-c2cc(C3CCN(c4ccc(C(C)=O)cc4[N+](=O)[O-])CC3)[nH]n2)cc1 | inconclusive: 2.24 µM [inhibitor, full curve]
60 | Cc1nc([N+](=O)[O-])c(Sc2nc3ccccc3n2C)n1Cc1ccccc1 | inconclusive: 22.4 µM [inhibitor, single point]
61 | CC(=O)N1CCN(c2cc(N3CCc4ccccc4C3)c(F)cc2[N+](=O)[O-])CC1 | inconclusive: 28.2 µM [inhibitor, single point]
62 | Cn1c(CO)cnc1SCC(=O)c1ccc(F)cc1 | inactive
